Source: paper PMC4336329 (PLoS ONE, 2015)
Hit rate of the full screen: of about 310,000 compounds, about 14,000 (4.5%) showed an effect of 50% or more. Effects have a minus sign here. Some of the results follow.

target: human ether-à-go-go-related gene (hERG) potassium channel (human, UniProt Q12809); experiment: primary screen, population patch clamp on CHO cells stably expressing hERG
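Note: peak tail current of the secondary pulse compared with the same well before compound.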

Sequence of human ether-à-go-go-related gene (hERG) potassium channel (Q12809 whole entry, looked up): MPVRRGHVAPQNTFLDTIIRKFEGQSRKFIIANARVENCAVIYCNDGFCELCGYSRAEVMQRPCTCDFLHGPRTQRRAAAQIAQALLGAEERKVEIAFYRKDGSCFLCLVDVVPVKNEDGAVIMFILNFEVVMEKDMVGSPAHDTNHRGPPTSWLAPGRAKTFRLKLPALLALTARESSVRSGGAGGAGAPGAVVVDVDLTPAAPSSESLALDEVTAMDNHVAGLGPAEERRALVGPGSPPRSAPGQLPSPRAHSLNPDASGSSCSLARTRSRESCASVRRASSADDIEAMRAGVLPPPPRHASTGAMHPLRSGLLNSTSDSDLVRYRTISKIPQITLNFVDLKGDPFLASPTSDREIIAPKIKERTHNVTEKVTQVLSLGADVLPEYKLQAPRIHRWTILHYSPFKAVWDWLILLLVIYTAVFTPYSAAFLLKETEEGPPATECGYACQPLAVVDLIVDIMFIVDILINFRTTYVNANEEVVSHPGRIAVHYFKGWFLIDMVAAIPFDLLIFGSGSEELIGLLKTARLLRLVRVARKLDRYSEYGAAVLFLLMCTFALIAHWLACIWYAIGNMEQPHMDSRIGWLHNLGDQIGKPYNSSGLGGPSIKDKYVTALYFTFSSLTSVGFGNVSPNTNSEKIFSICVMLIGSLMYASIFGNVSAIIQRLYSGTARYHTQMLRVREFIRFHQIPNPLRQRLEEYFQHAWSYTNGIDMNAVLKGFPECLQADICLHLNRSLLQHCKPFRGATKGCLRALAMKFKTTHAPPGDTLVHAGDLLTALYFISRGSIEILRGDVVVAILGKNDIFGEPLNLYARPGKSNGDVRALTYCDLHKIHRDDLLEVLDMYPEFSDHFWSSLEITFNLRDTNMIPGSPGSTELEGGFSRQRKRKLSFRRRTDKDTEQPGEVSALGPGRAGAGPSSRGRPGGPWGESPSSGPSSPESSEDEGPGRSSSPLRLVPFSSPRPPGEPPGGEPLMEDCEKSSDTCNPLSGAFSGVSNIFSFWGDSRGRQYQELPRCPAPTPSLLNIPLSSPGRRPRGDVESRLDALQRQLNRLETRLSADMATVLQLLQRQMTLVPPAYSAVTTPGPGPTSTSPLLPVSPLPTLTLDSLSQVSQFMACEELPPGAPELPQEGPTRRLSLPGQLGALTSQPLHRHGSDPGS

SMILES | hERG current change (%, negative = inhibition) at 10uM
Cc1cc(C)cc(NC(=S)Nc2ccc(Cl)c(Cl)c2)c1 | 12.6%
CNC(=O)CC(CC(=O)c1ccccc1)c1ccccc1 (stereo not drawn) | 10%
O=C(Nc1nccs1)c1ccc(S(=O)(=O)N2CCCCC2)cc1 | 3.29%
CCc1c(O)c(/C(C)=N\O)c(=O)n(-c2ccccc2)c1-c1ccccc1 | 6.42%
Cc1ccc(C(=O)N/C(=C/c2cccs2)C(=O)N2CCCCCC2)cc1 | -46%
COc1ccc2[nH]c(=O)c(CN(C(=O)NC3CCCCC3)C3CCCCC3)cc2c1 | -12.9%
CCCC[n+]1ccn(-c2nc3c([N+](=O)[O-])cccc3n2C)c1.[I-] | 8.72%
O=C(NCc1cccs1)c1nc2c(nnn2Cc2ccc(F)cc2)c(=O)[nH]1 | -13.3%
Cc1ccc(C(=O)OCC(=O)NC2CC2)cc1S(=O)(=O)N1CCOCC1 | 11.1%
CCn1c(CNC(=O)c2ccco2)nnc1SCC(=O)c1ccccc1 | 9.27%
Cc1cccc(C(=O)Nc2ccc(C(=O)N/N=C/c3ccc(C)o3)cc2)c1 | -13.2%
C=CCNC(=O)c1ccc(C)cc1Cl | -16.7%
COc1ccc(CN(C(=O)CNC(=O)c2ccco2)C(C(=O)NCC2CCCO2)c2ccc(OC)c(OC)c2)cc1 (stereo not drawn) | 14.3%
O=C(O)C1C2CCC(O2)C1C(=O)Nc1ccc(F)c(Cl)c1 (stereo not drawn) | 24.7%
Cc1ccc(-c2noc(C3CCCN(C(=O)c4cccc(Cl)c4)C3)n2)o1 (stereo not drawn) | -43.4%
COc1ccc(C(=O)C[n+]2ccc3c(c2)nnn3-c2ccccc2)cc1.[Br-] | -60.5%
O=C(CSc1ncnc2c1oc1ccccc12)Nc1cccc(C(F)(F)F)c1 | 11%
CCCOc1ccc(-c2nnn(CC(=O)c3ccc4c(c3)OCCO4)n2)cc1 | 14.8%
COCC1CCN(Cc2cn[nH]c2-c2ccc(OC)c(F)c2)C1 (stereo not drawn) | -4.22%
CNC(=S)N(Cc1cccs1)Cc1cc2cc(OC)c(OC)cc2[nH]c1=O | -43.7%
COc1ccc(C(=O)n2nc(C)cc2Nc2ccccc2)cc1 | 1.61%
CN1CCN(C(=O)C2C3C=CC(C3)C2C(=O)O)CC1 (stereo not drawn) | 4.89%
CCc1ccc(Oc2ncnc(N)c2[N+](=O)[O-])cc1 | 15.8%
COc1ccc(-c2ccc(CCC(=O)O)n2-c2ccccc2O)cc1 | 18.3%
